# Where two headings read alike, the source gives them in different places.
# Experiments:
# [1] = test system: EKVX non-small cell lung cancer cells
# MALME-3M melanoma cells = test: cells; settings: Homo sapiens
# [2] = test system: HCC-2998 colon cancer cells; test: cells; settings: Homo sapiens
# [3] = test system: OVCAR-5 ovarian cancer cells; test: cells; settings: Homo sapiens
# [4] = test system: OVCAR-4 ovarian cancer cells; test: cells; settings: Homo sapiens, OVCAR-4, read-out: LC50
# [5] = test system: NCI-H522 non-small cell lung cancer cells; test: cells; settings: Homo sapiens
# [6] = test system: DU-145 prostate cancer cells; test: cells; settings: Homo sapiens
# [7] = test system: PC-3 prostate cancer cells; test: cells
# TK-10 renal cancer cells [8] = test: cells; settings: Homo sapiens
# [9] = test system: EKVX non-small cell lung cancer cells; test: cells; settings: Homo sapiens
# [10] = test system: NCI-H23 non-small cell lung cancer cells
# SK-MEL-5 melanoma cells [11] = test: cells; settings: Homo sapiens
# [12] = test system: MDA-MB-435 breast cancer cells; test: cells; settings: Homo sapiens, MDA-MB-435
# [13] = test system: BT-549 breast cancer cells; test: cells; settings: Homo sapiens
# [14] = test system: MDA-N breast cancer cells; test: cells; settings: Homo sapiens
# K-562 leukemia cells [15] = test: cells; settings: Homo sapiens
# [16] = test system: SW-620 colon cancer cells; test: cells; settings: Homo sapiens
# [17] = test system: HCT-15 colon cancer cells
# SN12C renal cancer cells = test: cells; settings: Homo sapiens
# MCF7 breast cancer cells = test: cells; settings: Homo sapiens
# [18] = test system: OVCAR-4 ovarian cancer cells
# [19] = test system: IGR-OV1 ovarian cancer cells; test: cells; settings: Homo sapiens
# [20] = test system: NCI-H226 non-small cell lung cancer cells; test: cells; settings: Homo sapiens
# TK-10 renal cancer cells [21] = test system: TK-10 renal cancer cells
# SK-MEL-5 melanoma cells [22] = test system: SK-MEL-5 melanoma cells
# ACHN renal cancer cells = test: cells; settings: Homo sapiens
# K-562 leukemia cells [23] = test system: K-562 leukemia cells
# SK-MEL-2 melanoma cells = test: cells; settings: Homo sapiens
# UO-31 renal cancer cells = test: cells; settings: Homo sapiens
smiles,measurement,setting,value
CCCC(=O)NC1CCc2cc(OC)c(OC)c(OC)c2-c2ccc(C(C)=O)cc21 (centres unmarked),TGI,786-0 renal cancer cells,> 100 µM
same,TGI,[1],> 100 µM
same,GI50,MALME-3M melanoma cells,< 0.01 µM
same,CC50,MALME-3M melanoma cells; read-out: LC50,> 100 µM
same,GI50,[2]; HCC 2998,< 0.01 µM
same,CC50,"[2]; HCC 2998, read-out: LC50",74 µM
same,GI50,[3]; OVCAR-5,< 0.01 µM
same,CC50,"[3]; OVCAR-5, read-out: LC50",> 100 µM
same,TGI,SK-MEL-28 melanoma cells,> 100 µM
same,TGI,CCRF-CEM leukemia cells,> 100 µM
same,CC50,[4],> 100 µM
same,GI50,[5]; NCI-H522,< 0.01 µM
same,CC50,"[5]; NCI-H522, read-out: LC50",2.31 µM
same,GI50,[6]; DU-145,< 0.01 µM
same,CC50,"[6]; DU-145, read-out: LC50",> 100 µM
same,GI50,[7],< 0.01 µM
same,CC50,"[7]; Homo sapiens, read-out: LC50",> 100 µM
same,GI50,TK-10 renal cancer cells [8]; TK-10,26.6 µM
same,CC50,"TK-10 renal cancer cells [8]; TK-10, read-out: LC50",> 100 µM
same,GI50,[9],< 0.01 µM
same,CC50,[9]; read-out: LC50,> 100 µM
same,TGI,[10],47.3 µM
same,GI50,SK-MEL-5 melanoma cells [11]; SK-MEL-5,< 0.01 µM
same,CC50,"SK-MEL-5 melanoma cells [11]; SK-MEL-5, read-out: LC50",> 100 µM
same,GI50,[12],< 0.01 µM
same,GI50,[13]; BT-549,< 0.01 µM
same,CC50,"[13]; BT-549, read-out: LC50",> 100 µM
same,GI50,[14],< 0.01 µM
same,CC50,[14]; read-out: LC50,> 100 µM
same,GI50,K-562 leukemia cells [15]; K562,< 0.01 µM
same,CC50,"K-562 leukemia cells [15]; K562, read-out: LC50",> 100 µM
same,GI50,[16]; SW-620,< 0.01 µM
same,CC50,"[16]; SW-620, read-out: LC50",> 100 µM
same,TGI,[17],> 100 µM
same,GI50,SN12C renal cancer cells,< 0.01 µM
same,CC50,SN12C renal cancer cells; read-out: LC50,> 100 µM
same,GI50,MCF7 breast cancer cells; MCF7,< 0.01 µM
same,CC50,"MCF7 breast cancer cells; MCF7, read-out: LC50",> 100 µM
same,TGI,[18],> 100 µM
same,GI50,[19]; IGROV-1,< 0.01 µM
same,CC50,"[19]; IGROV-1, read-out: LC50",> 100 µM
same,GI50,[20]; NCI-H226,< 0.01 µM
same,CC50,"[20]; NCI-H226, read-out: LC50",> 100 µM
same,GI50,TK-10 renal cancer cells [21],34.5 µM
same,TGI,TK-10 renal cancer cells [21],> 100 µM
same,TGI,SK-MEL-5 melanoma cells [22],11.1 µM
same,GI50,ACHN renal cancer cells,< 0.01 µM
same,CC50,ACHN renal cancer cells; read-out: LC50,> 100 µM
same,TGI,K-562 leukemia cells [23],> 100 µM
same,GI50,SK-MEL-2 melanoma cells; SK-MEL-2,< 0.01 µM
same,CC50,"SK-MEL-2 melanoma cells; SK-MEL-2, read-out: LC50",> 100 µM
same,GI50,UO-31 renal cancer cells; UO-31,0.0152 µM
same,CC50,"UO-31 renal cancer cells; UO-31, read-out: LC50",> 100 µM
